# Experimental data as given in patent US20210236649A1 (ICONIC THERAPEUTICS, published 2021).
# T1: Lipidated rabbit tissue factor (rabbit, UniProt P24055 33-292, limits assumed)
# T1 construct: Amine-coupled as a proteoliposome to flow cell 2 of the Biacore chip; Also used to start thrombin generation in rabbit plasma; also called rTF; rabbit TF
# T1 sequence (looked up): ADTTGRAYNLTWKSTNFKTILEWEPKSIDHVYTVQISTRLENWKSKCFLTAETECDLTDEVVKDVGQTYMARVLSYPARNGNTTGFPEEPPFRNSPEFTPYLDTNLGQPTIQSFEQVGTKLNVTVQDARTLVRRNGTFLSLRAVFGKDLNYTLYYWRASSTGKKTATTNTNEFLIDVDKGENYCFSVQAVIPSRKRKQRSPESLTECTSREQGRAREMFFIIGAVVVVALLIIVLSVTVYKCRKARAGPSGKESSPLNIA
# Experiments:
# [1] = target: T2, Lipidated human tissue factor (human, UniProt P13726 33-295); test: SPR (Biacore 3000), lipidated human TF amine-coupled, analyte 0-50 nM, 37 C
# T2 construct: also called hTF; human TF
# Procedure: (§1) The GE procedure for proteoliposome immobilization (amine coupling) protocol was used to coat PS/PC/rTF on flow cell 2, and PS/PC/hTF on flow cell 3. Flow cells were equilibrated with running buffer (15 mM Hepes, 150 mM NaCl, 5 mM CaCl2, 25 mM Arginine, 0.01% Tween 80, pH7.4) at a flow rate of 5 μL/min. Kinetic analyses were performed at 37° C. by flowing consecutively increasing concentrations of each analyte […] in the running buffer (15 mM. HEPES, 150 mM NaCl, 5 mM CaCl2, 25 mM Arginine, 0.01% Tween 80, pH 7.4) over the sensor chip for 5 min followed by a 10 min dissociation period at a flow rate of 30 μL/min in parallel.
# (§2) Analyte binding to the lipidated TF was determined by subtracting the RU values noted in the reference flow cell 1 from flow cell 2 and 3. Binding of analytes to the TFs was monitored in real time to obtain on (ka) and off (kd) rates. The equilibrium dissociation constant (KD) was calculated from the observed ka and kd.
# (§3) Based on the saturation concentration of the analyte, binding analysis was performed using saturating analyte concentrations of 0-500 nM for rabbit TF and 0-50 nM for human TF. Chi squared (χ²) analysis was carried out between the actual sensorgram and the calculated on- and off-rates to determine the accuracy of the analysis.
# [2] = target: T1, Lipidated rabbit tissue factor; test: SPR (Biacore 3000), lipidated rabbit TF amine-coupled, analyte 0-500 nM, 37 C
# Procedure: as §1, §2, §3
# [3] = target: T1, Lipidated rabbit tissue factor; test: SPR (Biacore 3000), lipidated rabbit TF on chip
# Procedure: as §1, §2, §3
# [4] = target: T2, Lipidated human tissue factor; test: SPR (Biacore 3000), lipidated human TF on chip
# Procedure: as §1, §2, §3
binder,measurement,setting,value
"hI-con1 (Homo sapiens factor VII active site mutant immunoconjugate; mutated human factor VIIa conjugated to human IgG1 Fc) (Fc fusion, also called immunoconjugate dimer) ANAFLEELRPGSLERECKEEQCSFEEAREIFKDAERTKLFWISYSDGDQCASSPCQNGGSCKDQLQSYICFCLPAFEGRNCETHKDDQLICVNENGGCEQYCSDHTGTKRSCRCHEGYSLLADGVSCTPTVEYPCGKIPILEKRNASKPQGRIVGGKVCPKGECPWQVLLLVNGAQLCGGTLINTIWVVSAAHCFDKIKNWRNLIAVLGEHDLSEHDGDEQSRRVAQVIIPSTYVPGTTNHDIALLRLHQPVVLTDHVVPLCLPERTFSERTLAFVRFSLVSGWGQLLDRGATALELMVLNVPRLMTQDCLQQSRKVGDSPNITEYMFCAGYSDGSKDSCAGDSGGPHATHYRGTWYLTGIVSWGQGCATVGHFGVYTRVSQYIEWLQKLMRSEPRPGVLLRAPFPGSA[gap - human IgG1 Fc]",Ka,[1],1.1e+09 M⁻¹
same,koff,[1],0.00055 s⁻¹
same,kon,[1],620000 M⁻¹ s⁻¹
same,Kd,[2],53 nM
same,koff,[2],0.003 s⁻¹
same,kon,[2],56000 M⁻¹ s⁻¹
same,Kd,[3],53.2 nM
same,Kd,[4],0.892 nM
